In assay [1] the target is T1, human α3β4StrepII-nAChR (human).
T1 construct: whole, on cells; Heteromeric receptor on transfected, permeabilized HEK293 cells; also called α3β4-nAChR; hα3 hβ4StrepII; not shown: C-terminal StrepTagII
Kind of assay: immunofluorescence, permeabilized HEK293 cells, anti-human IgG-Alexa647.

Assay [2] addresses T2, human α4GFPβ2-nAChR (human).
T2 construct: whole, on cells; Heteromeric receptor on transfected, permeabilized HEK293 cells; also called α4β2-nAChR
The assay is described as above.

B1: α7C4-Fc (Fc fusion)
chain: MGSSHHHHHHAAAAQVQLVESGGGLVQAGGSLKLSCAASGFTFAHYAMVWFRQAPGKEREFVAGISWSGASTYYASSVKGRFTISRDNAKNTVYLQMNSLKPEDTAVYYVAAARFGVGVDDDYSYWGQGTQVTVSSAAARS[human IgG1 Fc not shown]
notes: VHH fused at its C-terminus to a human IgG1 Fc, a dimer with two VHH domains, made in EXPI293F cells; also called C4 fused to the heavy chain fragment of a human IgG; VHH-Fc (C4)
Turning to B1, the binding result in assay [1] and in assay [2] was “no binding (tested: 5 µg/ml)” throughout.

B2: α7E3-Fc (Fc fusion)
chain: MGSSHHHHHHAAAAEVQLQASGGGLVQAGDSLRLSCAASGGTFSHYAVGWFRQAPGKEREFVAAISWSGRSTSFANSVKGRFTISRDSAKNTAYLQMNNLKPEDTAVYCCAPARFGTGSAARDEYDDCGQGTQVTVSSAAARS[human IgG1 Fc not shown]
notes: VHH fused at its C-terminus to a human IgG1 Fc, a dimer with two VHH domains, made in EXPI293F cells; also called E3 fused to the heavy chain fragment of a human IgG; VHH-Fc (E3)
Turning to B2, the binding result in assay [1] and in assay [2] was “no binding (tested: 5 µg/ml)” in each case.
